Tested on: LAB 110 Eatro strain of T. b. brucei
Test: Acute Murine Model A
Conditions: for Mean Survival Days: 4 days, BID, orally
Method: Female Swiss Webster mice were inoculated with 250,000 parasites of the LAB 110 Eatro strain of T. b. brucei. 24 hrs post-infection, treatment was initiated BID for 4 days with 20 mg/kg/dose (40 mg/kg/day) intraperitoneally (IP) or orally (P0), 5 mg/kg BID or 10 mg/kg BID orally (P0). N=3 mice/group. Mice were monitored for 30 days for survival. Pentamidine at 2 mg/kg IP was used as the positive control. After 10 days, 0% of the untreated mice were parasite free. After 10 days, 0% of mice treated with 6-(4-chlorophenylsulfinyl)benzo[c][1,2]oxaborol-1(3H)-ol were parasite free. After 30 days, 100% of mice treated with 10 mg/kg BID of N-(1-hydroxy-1,3-dihydrobenzo[c][1,2]oxaborol-6-yl)-2-(trifluoromethyl)benzamide were parasite free.

Row | Structure (SMILES) | Mean Survival Days (10 mg/kg) | also measured
1 | O=C(Nc1ccc2c(c1)B(O)OC21CCC1)c1ccc(F)cc1Cl [compound 135] | 8 days | 
2 | COc1ccc(C(=O)Nc2ccc3c(c2)B(O)OC3C)cc1 (stereo not shown) [compound 5, N-(1-Hydroxy-3-methyl-1,3-dihydro-benzo[c][1,2]oxaborol-6-yl)-4-methoxy-benzamide] | >30 days | 
3 | [O-][S+](c1ccc(Cl)cc1)c1ccc2c(c1)B(O)OC2 (stereo not shown) [6-(4-chlorophenylsulfinyl)benzo[c][1,2]oxaborol-1(3H)-ol, reference compound] |  | mice parasite free after 10 days (after 10 days): 0%
4 | CC1OB(O)c2cc(NC(=O)c3ccccc3Cl)ccc21 (stereo not shown) [compound 4, 2-Chloro-N-(1-hydroxy-3-methyl-1,3-dihydro-benzo[c][1,2]oxaborol-6-yl)-benzamide] | >30 days | 
5 | CC1(C)OB(O)c2cc(NC(=O)c3ccc(F)cc3Cl)ccc21 [compound 69, 2-Chloro-4-fluoro-N-(1-hydroxy-3,3-dimethyl-1,3-dihydro-benzo[c][1,2]oxaborol-6-yl)-benzamide] | >30 days | 
6 | CC1OB(O)c2cc(NC(=O)c3ccc(F)cc3)ccc21 (stereo not shown) [compound 3, 4-Fluoro-N-(1-hydroxy-3-methyl-1,3-dihydro-benzo[c][1,2]oxaborol-6-yl)-benzamide] | 18 days | 
7 | CC1(C)OB(O)c2cc(NC(=O)c3ccccc3Cl)ccc21 [compound 38, 2-Chloro-N-(1-hydroxy-3,3-dimethyl-1,3-dihydro-benzo[c][1,2]oxaborol-6-yl)-benzamide] | 9 days | 
8 | CC1OB(O)c2cc(NC(=O)c3ccc(Cl)cc3)ccc21 (stereo not shown) [compound 9, 4-Chloro-N-(1-hydroxy-3-methyl-1,3-dihydro-benzo[c][1,2]oxaborol-6-yl)-benzamide] |  | Mean Survival Days (20 mg/kg): 8 days
9 | O=C(Nc1ccc2c(c1)B(O)OC2)c1ccccc1C(F)(F)F [N-(1-hydroxy-1,3-dihydrobenzo[c][1,2]oxaborol-6-yl)-2-(trifluoromethyl)benzamide] |  | mice parasite free after 30 days (10 mg/kg BID, after 30 days): 100%
10 | CC1(C)OB(O)c2cc(NC(=O)c3ccc(F)cc3C(F)(F)F)ccc21 [compound 82] | >30 days | 

From patent US20110190235A1, “BORON-CONTAINING SMALL MOLECULES AS ANTIPROTOZOAL AGENTS” (Anacor Pharmaceuticals, Inc., priority 2009, published 2011)
